# PubChem BioAssay AID686978 (National Center for Advancing Translational Sciences (NCATS), 2013)
# Several values for one entry are separate records, joined by “and”; a condition that tells them apart may be missing. Identical values can stand only once. The campaign covered roughly 420,000 compounds. About 64,000 (15%) were called active. This list was built around the results that the source calls inconclusive (neither active nor inactive); the mix of calls is not that of the screen. The call rests on the fitted dose curve; in most records, active means well fitted inhibition curve with a large enough effect; inconclusive means small, poorly fitted or top-dose-only effect; inactive means flat fitted curve, though single readings scatter. Potencies beside an inconclusive call are fits to weak or partial responses and may not hold up.
# Test: qHTS for Inhibitors of human tyrosyl-DNA phosphodiesterase 1 (TDP1): qHTS in cells in absence of CPT; further: nearly all actives have a fitted effect of over 55% in size
# Conditions: DT40 Tdp1-/- hTDP1 cells, no CPT, ATP luminescence, 48 h; activity change, negative = growth inhibition: at 46.2 µM (top of the series) unless noted
# Method in brief: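 Readout: luminescence from CellTiter-Glo after 30 min in the dark at RT. Cells: DT40 Tdp1-/- with stable hTDP1, 400/well. Exposure: compounds alone, ≥48 hr, 37 °C.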
# On the % scale 0 is the no-effect control and ±100 the full control effect; potency means the concentration at half of the fitted maximal effect; tags describe the fitted curve by direction and shape.
SMILES,Potency,"activity change, negative = growth inhibition"
Cc1ccc(C#CC[N+](C)(C)CC#Cc2ccccc2)cc1,active: 1.84 µM,–
COc1cccc(OCc2nc3ccccc3n2Cc2ccccc2C)c1,active: 11.6 µM,–
COc1ccc(S(=O)(=O)N2CCCC2CNC(=O)C(=O)Nc2ccc(C)cc2)cc1 (stereo not drawn),"inconclusive: 23.1 µM [inhibitor, single point]",–
Clc1cccc(-c2nnc(SC/C=C/c3ccccc3)n2Cc2ccco2)c1,"inconclusive: 20.6 µM [inhibitor, single point]",–
CCOC(=O)c1ccc(Nc2c(OCC)c(=O)c2=O)cc1,inactive,–
c1nc(NC2CCNCC2)c2cc(-c3ccoc3)ccc2n1,inactive,–
O=C(COc1ccc(Cl)cc1Cl)Nc1ccc2nc3n(c(=O)c2c1)CCCC3,"inconclusive: 29.1 µM [inhibitor, single point]",–
CCOc1ccc(N(CC)C(=O)C2CCN(S(=O)(=O)c3cccc4nonc34)CC2)cc1,"inconclusive: 18.4 µM [inhibitor, partial curve, poor fit]",–
CCNS(=O)(=O)c1ccc(CCC(=O)N2CCN(c3cc(Cl)ccc3C)CC2)cc1,active: 11.6 µM,–
Cc1nc(-c2ccc(Cl)cc2)sc1C1(C)CC(c2ccc([N+](=O)[O-])cc2)=NO1 (stereo not drawn),"inconclusive: 23.1 µM [inhibitor, single point]",–
Cc1ccc(C(=O)N/C(=C/c2ccco2)C(=O)N2CCC(C)CC2)cc1,"inconclusive: 29.1 µM [inhibitor, single point]",–
COc1cc(NC(=O)Cn2nnc(-c3ccc(C(F)(F)F)cc3)n2)c(C(=O)O)cc1OC,inactive,–
Cc1ccc(OCC(=O)Nc2ccc(C)c(S(=O)(=O)N3CCCCC3)c2)c([N+](=O)[O-])n1,"inconclusive: 25.9 µM [inhibitor, single point]",–
Cc1cccc(NC(=O)c2ccc(N3C(=O)C4CCCCC4C3=O)cc2)c1C (stereo not drawn),inactive,–
COc1ccccc1/C=N\Nc1cn[nH]c(=O)c1Cl,"inconclusive: 25.9 µM [inhibitor, single point]",–
Cc1cccc(C)c1NC(=O)CN(Cc1ccccc1)Cc1ccccc1,active: 20.6 µM,–
CN(C)Cc1nc2c([nH]1)c(=O)n(C)c(=O)n2C,inactive,–
CC1(C)Cc2cccc(C(=O)Nc3ccc(Cl)cc3)c2O1,"inconclusive: 29.1 µM [inhibitor, single point]",–
COc1ccc(-c2noc(N3CCC(C(=O)N4CCN(c5ccccn5)CC4)CC3)n2)cc1,active: 10.3 µM,–
O=C(Cc1ccccc1[N+](=O)[O-])OCC(=O)c1ccccc1Br,inactive,–
CC1=Nc2ccccc2/C1=C\c1sc(Nc2ccc(C)cc2)nc1O,active: 0.92 µM,–
Cc1cc2nc(-c3cccc(Br)c3)c(Cc3ccsc3)n2c(C)c1Br,"inconclusive: 14.6 µM [inhibitor, partial curve]",–
CC1(C)Cc2ccccc2-c2nnc(-c3ccc4ccccc4n3)n21,"inconclusive: 20.6 µM [inhibitor, partial curve, poor fit]",–
CCOC(=O)C1=C(N)N2C(=O)CSC2=C(C(=O)OC)C1,"inconclusive: 29.1 µM [inhibitor, single point]",–
CCOC(=O)Cn1cc(C(=O)c2ccco2)c2ccccc21,"inconclusive: 32.6 µM [inhibitor, partial curve, poor fit]",–

SMILES,Potency,"activity change, negative = growth inhibition"
O=C(Cn1c(=O)oc2cc(S(=O)(=O)NCc3ccccc3)ccc21)Nc1ccc(F)c(Cl)c1,"inconclusive: 16.4 µM [inhibitor, single point]",–
COCCNC(=O)c1cnn2c(C(F)(F)F)cc(-c3ccc(C)cc3)nc12,"inconclusive: 25.9 µM [inhibitor, partial curve]",–
CC(C)(C)c1ccc(C(=O)NCC(=O)NNC(=O)c2ccccc2O)cc1,"inconclusive: 20.6 µM [inhibitor, single point]",–
COc1c(Cl)cc(C(=O)Nc2ccccc2-c2ccccc2)cc1Cl,active: 29.1 µM,–
S=c1[nH]nc(CSCc2ccc(Cl)cc2Cl)n1-c1ccccc1,active: 15.8 µM,–
O=C1SC(Nc2ccc(Cl)cc2)C(=O)N1Cc1ccccc1 (stereo not drawn),"inconclusive: 18.4 µM [inhibitor, single point]",–
CCC(C(=O)OCC(=O)Nc1ccc(C(=O)Nc2ccc(OC)cc2)cc1)c1ccccc1 (stereo not drawn),"inconclusive: 29.1 µM [inhibitor, single point]",–
O=C1c2[nH]nc(-c3ccccc3)c2C(c2ccccc2)N1c1cccc(C(F)(F)F)c1 (stereo not drawn),active: 16.4 µM,–
CCCc1cc(=O)n2[nH]c(NCc3ccc(CC)cc3)nc2n1,inactive,–
Clc1ccccc1-c1cncnc1NCCN1CCOCC1,active: 3.66 µM,–
COC(=O)C(F)(F)Sc1c(C)[nH]c2ccccc12,"inconclusive: 25.1 µM [inhibitor, single point]",–
Cc1ccc(S(=O)(=O)CCC(=O)Nc2nc(C(C)(C)C)cs2)cc1,"inconclusive: 25.9 µM [inhibitor, single point]",–
COc1ccc(Br)cc1CNC(=O)C1CCCN(S(=O)(=O)N2CC(C)CC(C)C2)C1 (stereo not drawn),"inconclusive: 18.4 µM [inhibitor, single point]",–
Clc1cccc(N=NN2CCOCC2)c1Cl,"inconclusive: 8.2 µM [inhibitor, partial curve]",–
CCC(Oc1ccccc1)C(=O)Nc1ccccc1N1CCCCC1 (stereo not drawn),"inconclusive: 29.1 µM [inhibitor, single point]",–
COc1ccc(C(=O)C=CNNC(=O)c2ccc(Cl)cc2)cc1,"inconclusive: 16.4 µM [inhibitor, single point]",–
CC1CCN(C(=O)c2ccc(N3CCOCC3)c([N+](=O)[O-])c2)CC1,"inconclusive: 20.6 µM [inhibitor, single point]",–
Cc1c(Cl)cccc1NS(=O)(=O)c1ccc(-c2ccc(=O)[nH]n2)o1,inactive,–
O=C(NCc1ccccc1)C(c1ccc(C(F)(F)F)cc1)N1CCN(CCN2CCOCC2)CC1 (stereo not drawn),inactive,–
CCOC(=O)c1c(C)[nH]c(C)c1S(=O)(=O)N1CCC(C(=O)N2CCN(c3cc(C)ccc3C)CC2)CC1,active: 23.1 µM,–
CCN(C(=O)c1cccc(NC(=O)c2ccccc2)c1)C1CCCCC1,"inconclusive: 29.1 µM [inhibitor, single point]",–
Cc1cc2c(C)nc(N/N=C/c3ccc(F)cc3)nc2o1,–,inconclusive: -31.2% [inhibitor]
COC(=O)/C=C1\S/C(=N\N=C\CC(=O)OC)NC1=O,active: 5.17 µM,–
Cc1cc(NC(=O)C(C)SCC(=O)Nc2cc(C(F)(F)F)ccc2N2CCCCC2)no1 (stereo not drawn),"inconclusive: 29.1 µM [inhibitor, single point]",–
Cc1c(Cl)cccc1Nc1nc(N)nc(CSc2nc3ccccc3s2)n1,"inconclusive: 18.4 µM [inhibitor, partial curve, poor fit] and inconclusive: 29.1 µM [inhibitor, single point]",–

SMILES,Potency,"activity change, negative = growth inhibition"
O=C(NCCc1c[nH]c2ccccc12)/C(=C\c1cccnc1)NC(=O)c1ccccc1F,"inconclusive: 25.9 µM [inhibitor, partial curve]",–
O=C(c1cc2ccccc2o1)N1CCOCC1,inactive,–
CC1=CC(C)(C)n2c(O)c(N=N)c3c(C)c(C)cc1c32,"inconclusive: 23.1 µM [inhibitor, single point]",–
O=C(NCC(=O)N1CCCC(C(F)(F)F)C1)c1ccccc1F (stereo not drawn),inactive,–
CCOC(=O)C1(Cc2cccc(F)c2)CCN(C(=O)c2ccoc2C)CC1,"inconclusive: 29.1 µM [inhibitor, single point]",–
CCOc1ccc(NC(=O)CN(C)C(=O)c2cccc(S(=O)(=O)N3CCN(C)CC3)c2)cc1OCC,inactive,–
O=C1C=C(NNC(=O)c2cccnc2)CC(c2ccco2)C1 (stereo not drawn),inactive,–
COc1cc2c(cc1OC)CN(C(=O)CSc1nc(C)cc(C)c1C#N)CC2,active: 20.6 µM,–
CN1CCC(CN2c3ccccc3Sc3ccccc32)C1 (stereo not drawn),active: 11.9 µM,–
CCCCN(CC)S(=O)(=O)c1ccc(C(=O)Nc2nnc(COC)o2)cc1,"inconclusive: 29.1 µM [inhibitor, single point]",–
CCc1ccc(Nc2n[n+](C)c(-c3ccncc3)s2)cc1,active: 25.9 µM,–
COc1ccc(CCN(CC(=O)NCc2ccc(F)cc2)C(=O)c2snc(C(N)=O)c2N)cc1OC,inactive,–
COCCn1c(SCC(=O)NC(=O)NC2CCCCC2)nc2ccccc2c1=O,active: 14.6 µM,–
CCNc1nc2c(c(=O)[nH]c(=O)n2C)n1CCCc1ccccc1,inactive,–
CC1Cc2ccccc2N1C(=S)NC(=O)C1(C)CC1(Cl)Cl (stereo not drawn),"inconclusive: 29.1 µM [inhibitor, single point]",–
C/C(=N\NC(=O)c1cccc(N/N=C(\C)c2cc(O)ccc2O)c1)c1cc(O)ccc1O,active: 16.4 µM,–
OCCCc1nc2ccccc2n1CCc1ccccc1,inactive,–
OC(c1cc(F)cc(Cl)c1)c1ncc(-c2ccccc2C(F)(F)F)[nH]1 (stereo not drawn),"inconclusive: 16.4 µM [inhibitor, single point]",–
NS(=O)(=O)c1ccc(CCNC(=O)/C=C/c2cccc([N+](=O)[O-])c2)cc1,–,inconclusive: -34.6% [inhibitor]
CCCCCC(N)=O,inactive,–
Cc1cc(N(C)C)cc(C)[n+]1[O-],inactive,–
CN=C1SC(CC(=O)Nc2c(C)cccc2C)C(=O)N1/N=C/c1cccs1 (stereo not drawn),"inconclusive: 29.1 µM [inhibitor, single point]",–
O=C(NCCN1CCN(C(=O)c2c(F)cccc2F)CC1)C(=O)Nc1ccc(Cl)cc1,"inconclusive: 29.1 µM [inhibitor, single point]",–
